Hit rate of the full screen: of about 45,000 compounds, about 200 (0.44%) were called active. Roughly 7% stayed inconclusive and do not appear here. The call rests on the fitted dose curve; in most records, active means well fitted activation curve with a large enough effect; inconclusive means small, poorly fitted or top-dose-only effect; inactive means no such curve, though single readings can be large or run the other way. This is one part of the list.
assay: qHTS of TDP-43 Inhibitors: NCGC Sytravon Library Screen; conditions: yeast TDP-43 toxicity rescue, BacTiter-Glo growth, 24 h; series mostly up to 46.1 µM; growth rescue (activation): at the top concentration; further: 0% is about no effect; nearly all actives have a fitted effect of over 55% in size
Procedure, shortened: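 TDP-43-expressing yeast, pregrown in raffinose, seeded at OD600 0.02 in galactose medium with compound for 24 hr at 30 deg C. Growth read by BacTiter-Glo luminescence, so rescue of toxicity appears as activation.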

SMILES	growth rescue (activation)
CCc1ccccc1N(CC(=O)NC1CCCCC1)C(=O)CCC(=O)Nc1ccccn1	inactive: -4.98%
CCOc1ccc(/C=N/OCC(=O)Nc2cc(C)on2)cc1	inactive: 3.32%
COc1cc(C(=O)NCCCNc2nc3c(C)cc(C)cc3cc2C#N)cc(OC)c1OC	inactive: 2.8%
CCOC(=O)c1nnn(-c2nonc2N)c1CN(CC)CC	inactive: -19.7%
O=C(CSc1nnc(-c2ccco2)o1)NC(=O)C1COc2ccccc2O1 (stereo not drawn)	inactive: -10.2%
Cn1ccsc1=NC(=O)c1cccc(C#N)c1	inactive: 13%
CCC(=O)N1CCc2cc(S(=O)(=O)N(CC)c3cccc(C)c3)ccc21	inactive: 17.2%
COc1ccc2cc(C3c4cc(OC)c(OC)cc4CCN3C(=O)c3ccco3)c(=O)[nH]c2c1 (stereo not drawn)	inactive: -16.6%
CCN(CC)S(=O)(=O)c1ccc2c(c1)N(CC(=O)NCC(C)c1ccccc1)C(=O)CO2 (stereo not drawn)	inactive: 4.97%
COc1ccc(C(=O)N2CCCCC2c2cc(C(=O)Nc3ccc(F)c(Cl)c3)no2)cc1 (stereo not drawn)	inactive: 26.8%
CCOC(=O)/C=C/C(=O)N1CCN(C(=O)/C=C/C(=O)OCC)CC1	inactive: 6.53%
CCOc1cccc(/C=C/c2ccc3cccc(O)c3n2)c1OC	inactive: 19.2%
CCN(CC)C(=O)c1sc(NC(=O)c2ccncc2)c(C(=O)OC)c1C	inactive: 10.4%
O=C(COC(=O)Cn1cnc2ccccc2c1=O)NCC12CC3CC(CC(C3)C1)C2	inactive: -1.15%
Cc1cc(C)c(NC(=O)C(C)(C)C)c(Cl)c1	inactive: -10.6%
CCOC(=O)C1C(c2ccccc2)N(C)OC1(O)C(F)(F)F (stereo not drawn)	inactive: -0.681%
Cc1cc[n+](-c2[nH]c(=O)sc2/C=N/N=C(\[O-])CCn2c3ccccc3c3ccccc32)cc1	inactive: 17.9%
O=C(CSc1nc2ncc(Cl)cc2[nH]1)N1CCOCC1	inactive: 10.8%
O=C(NNC(=S)Nc1ccc(Cl)cc1Cl)c1ccncc1	inactive: 17.7%
CN(CCC#N)C(=O)COC(=O)c1ccc(CNS(=O)(=O)c2ccc(F)c(Cl)c2)cc1	inactive: 10.1%
O=C(OCC(=O)N1CCCC1)c1cc(Cl)ccc1Cl	inactive: 8.48%
Fc1ccc(-c2cc(-c3ccccc3)nc(-n3cccn3)n2)cc1	inactive: 12%
Cc1ccc(CNC(=O)COC(=O)Cn2nc(C)c([N+](=O)[O-])c2C)cc1	inactive: 7.02%
O=C(Cn1cc(C(F)(F)F)ccc1=O)Nc1ccccc1	inactive: 24.7%
O=C(COC(=O)/C=C/c1cccc(F)c1)Nc1ccccc1	inactive: -4.85%
CCc1ccc(N(C(C)=O)c2nc(CCl)cs2)cc1	inactive: 12.7%
CC1CCCN(C(=O)C2CCN(CCCc3ccccc3)CC2)C1 (stereo not drawn)	inactive: 11.7%

SMILES	growth rescue (activation)
COc1ccc(-n2nnnc2SCC(=O)NNC(=O)c2ccc([N+](=O)[O-])cc2)cc1	inactive: -25.2%
O=C(COC(=O)c1cncc(Br)c1)NC1CCCCCC1	inactive: 9.82%
CC1=C(C(=O)OCC2CCCO2)C(c2ccsc2)C2=C(CC(C)(C)CC2=O)N1 (stereo not drawn)	inactive: 4.67%
COCCNC(=S)N1CCN(c2nc(-c3cccc(OC)c3)cs2)CC1	inactive: 24.7%
CCOCCn1c(CN2CCN(C(c3ccccc3)c3ccccc3)CC2)nc2c1c(=O)n(C)c(=O)n2C	inactive: -2.76%
COc1ccccc1NS(=O)(=O)c1ccc(NC(=O)N2CCCCC2)cc1	inactive: 9.47%
O=C(NC1CCN(C(=O)Nc2ccc(F)cc2)CC1)c1cccc(F)c1	inactive: 3.76%
Cc1ccc(S(=O)(=O)/N=C(\Nc2cccc(C)c2)Nc2nc(C)cc(C)n2)cc1	inactive: -1.39%
Cc1sc2ncnc(NCC(O)c3ccccc3)c2c1C (stereo not drawn)	inactive: 25.4%
COC(=O)CC(c1ccc(F)cc1)n1c(C)ccc1C (stereo not drawn)	inactive: 22.1%
COc1ccc(/C=C/C(=O)OCC(=O)Nc2cccc(S(=O)(=O)NC3=NCCCCC3)c2)cc1	inactive: -15.5%
O=C(CN1CCN(S(=O)(=O)c2ccc(F)cc2)CC1)Nc1ccccc1C(=O)NC1CC1	inactive: 18.5%
O=C(N/C(=C/c1cccnc1)C(=O)N1CCOCC1)c1ccccc1Cl	inactive: -4.57%
Cn1cc(CN2CCC(C(O)c3cccs3)CC2)c(-c2cccc(Cl)c2)n1 (stereo not drawn)	inactive: 19.8%
O=C(COC(=O)c1ccc(S(=O)(=O)N2CCCC2)cc1)NCc1cccs1	inactive: -15.3%
COc1ccc(Cl)cc1C(=O)Nc1ccc(S(N)(=O)=O)cc1	inactive: -3.47%
COc1cc(CNc2ncnc3c2ncn3[C@H]2CN(Cc3cccs3)C[C@@H](CO)O2)cc(OC)c1OC	inactive: 17.8%
Cn1nc(C(=O)Nc2ccc(-n3cnnn3)cc2)c2ccccc2c1=O	inactive: 1.35%
CCCC(C(=O)NNC(=O)c1cc(C)oc1C)c1ccccc1 (stereo not drawn)	inactive: 17%
CN(Cc1ccccc1)C(=O)CCc1ccccc1	inactive: 42.7%
Oc1c(Br)cc(C=Nc2ccc3nc(-c4ccccc4)[nH]c3c2)c(O)c1Br	inactive: 1.7%
Fc1cccc(Cc2noc(CN3CCSCC3)n2)c1	inactive: 10.7%
O=C(Nc1ccc(Cl)c(S(=O)(=O)N2CCOCC2)c1)c1ccccn1	inactive: 5.23%
O=C(Nc1ccc(Br)cc1)c1cc(-c2cccs2)on1	inactive: -5.03%
O=C(O)c1cc(-c2ccc(N3CCOCC3)cc2)nn1-c1ccccc1Cl	inactive: -19.3%
CC1(C(=O)NS(=O)(=O)c2ccc(Cl)s2)CCN1C(=O)C1(c2ccccc2)CCCC1 (stereo not drawn)	inactive: -8.4%
